# Reference: PubChem BioAssay AID488969 (Vanderbilt High Throughput Screening Facility, 2010)
# Whole data set: some 110,000 compounds, median “z-score” near -0.1, cut for the highest 2% near 2. Some of the results follow. The source made the active and inactive calls.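 How the source made its calls: active means z-score in the third read window above 3 or below -3; inactive means the rest.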
# Molecular target: Metabotropic glutamate receptor 8 (Rattus norvegicus) (UniProt P70579)
# Experiment: rat mGluR8 modulators via GIRK flux, primary screen, cell-based, thallium flux, HTS (AID 488969)
# Details: HEK293 rat mGluR8, GIRK (G protein-gated inwardly rectifying potassium channel) thallium flux, FluoZin2; at 10 µM; stronger effect = higher value; submaximal glutamate (EC20) added with thallium
# Chain of UniProt P70579 (P70579 whole entry, looked up): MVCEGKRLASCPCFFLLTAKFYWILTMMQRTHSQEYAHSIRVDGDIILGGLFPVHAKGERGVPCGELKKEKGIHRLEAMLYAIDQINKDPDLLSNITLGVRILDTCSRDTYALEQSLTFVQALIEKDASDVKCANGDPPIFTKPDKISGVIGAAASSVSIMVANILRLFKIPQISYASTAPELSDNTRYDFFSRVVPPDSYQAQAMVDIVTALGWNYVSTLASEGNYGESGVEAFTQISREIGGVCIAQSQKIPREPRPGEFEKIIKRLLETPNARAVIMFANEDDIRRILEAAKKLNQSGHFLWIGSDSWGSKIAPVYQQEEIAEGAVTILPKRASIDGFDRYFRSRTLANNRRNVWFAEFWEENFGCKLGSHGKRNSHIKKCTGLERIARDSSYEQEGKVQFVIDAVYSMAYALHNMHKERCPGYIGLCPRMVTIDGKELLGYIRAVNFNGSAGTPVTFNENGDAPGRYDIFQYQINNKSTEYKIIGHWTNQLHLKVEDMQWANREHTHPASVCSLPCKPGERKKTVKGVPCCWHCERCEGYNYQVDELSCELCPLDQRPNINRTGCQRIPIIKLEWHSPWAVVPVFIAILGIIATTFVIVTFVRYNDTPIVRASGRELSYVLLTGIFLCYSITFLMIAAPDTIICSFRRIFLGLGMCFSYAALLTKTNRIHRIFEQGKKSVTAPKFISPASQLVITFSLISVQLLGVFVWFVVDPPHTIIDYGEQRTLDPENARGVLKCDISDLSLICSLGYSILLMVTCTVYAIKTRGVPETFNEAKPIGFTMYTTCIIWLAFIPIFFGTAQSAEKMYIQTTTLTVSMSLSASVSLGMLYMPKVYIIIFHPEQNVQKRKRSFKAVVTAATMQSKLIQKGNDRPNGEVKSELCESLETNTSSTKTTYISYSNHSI
row,Structure (SMILES),z-score
1,O=C(c1ccccc1[N+](=O)[O-])N1CCC(Cc2ccccc2)CC1,-0.0322
2,CC(C)CC(c1nnnn1C(C)C)N1CCN(c2ccccc2)CC1 (stereo not drawn),0.0668
3,CC(C)CCNC(=O)CCCOc1cc(=O)n(C)c2ccccc12,-0.0449
4,Cn1cnnc1SCC(=O)Nc1cc(S(=O)(=O)N2CCCCCC2)ccc1Cl,-0.301
5,Cn1c(N2CCOCC2)c(/C=N/OC(=O)c2ccc(F)cc2)c2ccccc21,-0.268
6,CCn1c(=O)cc(SCC(=O)N2CCN(C3CCCCC3)CC2)c2ccccc21,-0.174
7,CCSc1ccccc1C(=O)n1nnc2ccccc21,-1.25
8,CCOC(=O)CSc1nnc(-c2nnc(SCC(=O)OCC)n2CC)n1CC,-0.379
9,COc1ccc(CCn2c(=O)[nH]c3cc(C(=O)NCCN4CCOCC4)ccc3c2=O)cc1OC,0.716
10,NC(=O)c1cnn2c(C(F)(F)F)cc(-c3ccccc3)nc12,-0.118
11,CC(C)NC(=O)c1ccccc1NC(=O)CCc1ccccc1,-0.0539
12,CC(=O)N(CCCN1CCOCC1)Cc1ccncc1,-0.261
13,Cc1nc(C)c(-c2csc(NCc3ccccc3)n2)s1,-0.34
14,CN(Cc1ccccc1F)c1nc(-c2cccs2)nc2ccccc12,0.11
15,COc1nc(NCCc2ccc(OC)c(OC)c2)nc(OC)n1,-0.163
16,COCCNC(=O)Cn1c(=O)n(Cc2ccco2)c(=O)c2ccccc21,-0.358
17,CCC(=O)Nc1ccc(N2CCCCC2)cc1,-0.169
18,COc1cccc(-n2c(SCC(=O)Nc3ccc4c(c3)CCC4)nc3ccccc3c2=O)c1,-0.242
19,O=C(COC(=O)C1=Cc2ccccc2OC1)NC1CCCC1,-0.184
20,C=CCn1c(SCC(=O)c2ccc(Br)cc2)nnc1C(C)NC(=O)Cc1ccc(OC)cc1 (stereo not drawn),-0.194
21,CN(C)CCN(C)Cc1ccccc1Sc1cccc2ccccc12,0.946
22,COc1cc(C=O)ccc1OCCOCCOc1ccc(Cl)cc1Cl,-0.324

row,Structure (SMILES),z-score
1,Cc1ccccc1C(=O)c1ccc2c(c1)n(C)c(=O)n2C,0.329
2,O=C(CN1C(=O)c2cccc3cccc(c23)C1=O)N1CCN(Cc2ccc3c(c2)OCO3)CC1,0.769
3,CC(=O)NC1=C(NC2CCS(=O)(=O)C2)C(=O)c2ccccc2C1=O (stereo not drawn),0.236
4,O=C(Nc1ccc2c(c1)OCCO2)c1cc(-n2cnnc2)ccc1Cl,0.0457
5,CC(C)OCCCNC(=O)CCSc1ccc(Cl)cc1,-0.502
6,COc1ccc(-n2c(CNc3ccc(C)cc3)nnc2SCc2ccccc2)cc1,-0.47
7,Cc1cc(C)c(S(=O)(=O)n2c([N+](=O)[O-])cnc2C)cc1C,0.127
8,O=C(Nc1cccc(NC(=O)C2CC2)n1)C1CC1,-0.152
9,CN(C)c1nc(-c2ccccc2)nc(-c2ccc(Cl)cc2)c1C#N,0.0496
10,COc1ccc(NC(=O)CSc2ncnc3c2cnn3Cc2ccccc2)cc1,-0.237
11,COc1ccc(S(=O)(=O)Nc2cccc(NC(C)=O)c2)cc1,0.142
12,Cc1cccc(N2Cc3ccccc3C2=NC(=O)c2ccc(Cl)nc2)c1,0.324
13,COc1cc(-c2cc(C(=O)Nc3ccc(S(=O)(=O)NCc4ccco4)cc3)c3ccccc3n2)cc(OC)c1OC,-0.615
14,Cc1ccc(S(=O)(=O)N(CC(=O)N2CCC(C)CC2)Cc2ccccc2F)cc1,1.38
15,COc1ccc(NC(=O)CSc2nc3c(c(=O)n2-c2ccc(F)cc2)SCC3)c(OC)c1,-0.389
16,COc1ccc(NC(=O)CN2CCN(CC(=O)Nc3ccccc3Cl)CC2)cc1,-0.12
17,O=C(Nc1ccc(S(=O)(=O)C(F)F)cc1)c1cccc(S(=O)(=O)N2CCOCC2)c1,0.0646
18,O=C(Cn1cc([N+](=O)[O-])cn1)Nc1ccccn1,-0.403
19,CC1=C(C#N)C(c2ccc(O)cc2)C2=C(CC(C)(C)CC2=O)N1 (stereo not drawn),0.166
20,O=C(c1ccccc1NS(=O)(=O)c1ccc(F)cc1)N1CCCC1,-0.104
21,Cc1cc(=O)[nH]c2c1c(C)nn2C1CCOC(C)(C)C1 (stereo not drawn),0.191
22,Cc1ccc(S(=O)(=O)NCCSC(C)(C)C)cc1,-0.0832

row,Structure (SMILES),z-score
1,CCOP(=O)(c1ccccc1)c1nc(-c2ccc(F)cc2)oc1N1CCCCC1 (stereo not drawn),-1.63
2,COc1ccc(-c2noc(C(C)n3nc(C)c([N+](=O)[O-])c3C)n2)cc1OC (stereo not drawn),-0.0624
3,O=C(N/C(=C/c1ccc2c(c1)OCO2)C(=O)N1CCOCC1)c1cccs1,-0.358
4,COc1cc(NC(=O)C2CCCN(S(=O)(=O)c3ccc4c(c3)oc(=O)n4C)C2)cc(OC)c1 (stereo not drawn),0.205
5,COc1ccc(S(=O)(=O)N(CC(=O)Nc2cccnc2)c2ccccc2OC)cc1,-0.332
6,COC(=O)N/N=C/c1cc(Cl)cc(Cl)c1OCc1ccccc1F,0.623
7,O=C(Nc1ccccc1)C(=O)c1cn(CC(=O)N2CCCCC2)c2ccccc12,0.00497
8,Cc1c(C(=O)N2CCN(c3ccccc3)CC2)sc2ncnc(N3CCN(c4ccccc4)CC3)c12,-0.123
9,COc1ccc(NC(=O)c2ccc(-n3nc(C)cc3C)cc2)cc1OC,-0.503
10,COc1ccc(-c2onc(C)c2-c2ccccc2)c(O)c1,-0.108
11,CC(C)C12CN3CC(C(C)C)(CN(C1)C3c1ccco1)C2=O (stereo not drawn),0.719
12,Cc1ccc(-c2csc(NC(=O)c3cccs3)n2)cc1,-0.149
13,CC(C)c1ccc(CNc2cc(N3CCCC3)ccc2[N+](=O)[O-])cc1,-0.15
14,CC1Cc2ccccc2N1S(=O)(=O)c1cccc2nsnc12 (stereo not drawn),-0.775
15,COC(=O)c1ccc(OCC(=O)c2ccccc2)cc1,0.276
16,Cc1ccc2nc(SCC(=O)Nc3cccc([N+](=O)[O-])c3)[nH]c2c1,-0.186
17,Cc1ccc(/C=C/C(=O)NCCCN2CCN(CCCNC(=O)/C=C/c3ccc(C)cc3)CC2)cc1,-0.22
18,Cc1cc(S(=O)(=O)Nc2ccc3ccccc3c2)c(C)s1,0.00286
19,O=C(O)CCSc1nc(C(F)(F)F)cc(=O)n1-c1ccccc1,-0.505
20,COC(=O)c1sc2nc(-c3ccccc3)nc(N3CCN(C)CC3)c2c1C,0.19
21,C/C(CC(=O)NCC(C)C)=N\NC(=O)COc1cc(C)c(Br)cc1Br,active: 5.36
22,Cc1cc(NC(=O)c2c([N+](=O)[O-])c(C)nn2C)no1,-0.146

row,Structure (SMILES),z-score
1,COc1cccc(N(CC(=O)NCCSc2ccccc2)S(C)(=O)=O)c1,0.502
2,COCC(=O)Nc1nnc(Cc2ccc(OC)cc2)s1,0.0794
3,Cn1c(N)c(C(=O)COC(=O)CCc2c[nH]c3ccccc23)c(=O)n(C)c1=O,-0.412
4,N/C(=N\OC(=O)Cc1ccccc1[N+](=O)[O-])c1ccncc1,0.641
5,O=C(Oc1ccc2c(c1)OCO2)c1ccc(Br)c(S(=O)(=O)N2CCOCC2)c1,0.026
6,C1=C(c2ccccc2)CCN(c2nc3ccccc3n3cnnc23)C1,0.0688
7,N#C/C(=C\c1ccco1)Sc1nc2ccccc2s1,-0.232
8,N=c1ccn(Cc2ccccc2Cl)cc1,-0.281
9,CC(C)(C)NC(=O)c1cc(F)c(F)cc1Cl,-0.03
10,Cn1c(SCc2ccccc2)nnc1C1CCCNC1 (stereo not drawn),0.254
11,CCOC(=O)CN(Cc1sccc1C)C(=O)Nc1ccc(OCC)cc1,-0.0739
12,O=c1oc2ccccc2c(N2CCCCC2)c1CN1CCCCC1,-0.762
13,COc1cccc(C2=NO[C@@H]3C(=O)N(c4ccc5c(c4)OCCO5)C(=O)[C@H]23)c1OC,-0.153
14,Cc1ccc(CN2CN(S(=O)(=O)c3cccs3)c3nc4ccccc4nc32)cc1,0.149
15,Cc1ccc(/C=N/NC(=O)CN(Cc2ccccc2)S(=O)(=O)c2ccc3c(c2)OCCO3)cc1,-0.0995
16,NS(=O)(=O)c1ccc(CCNC(=O)[C@@H]2CCCN2S(=O)(=O)c2ccccc2F)cc1,0.119
17,CC1=NNC(=O)/C1=C\c1cn(-c2ccccc2)nc1-c1ccc(Cl)cc1,-0.29
18,O=C(Nn1c(SCc2ccccc2F)nc2ccsc2c1=O)c1ccccc1,-0.0125
19,Cc1oc2ccc(OCc3ccccc3F)cc2c1C(=O)O,-0.186
20,Cc1ccccc1NC(=O)c1cc(C(=O)c2cc(Cl)ccc2O)cn(-c2ccccc2C)c1=O,-0.378
21,CCCCCCC1CC(CSC(=N)N)OC1=O (stereo not drawn),0.116
22,Cc1c(S(=O)(=O)N2CCOCC2)c(=O)n(C)c(=O)n1C,0.0852

row,Structure (SMILES),z-score
1,CC(=O)c1cc2c(cc1NC(=O)CSc1nnc(C)s1)OCO2,-0.677
2,O=C(OCC(=O)c1cccs1)c1cccc(C(=O)OCC(=O)c2cccs2)n1,-0.78
3,Cc1cc(N2CCOCC2)n2nc(C)c(-c3ccccc3)c2n1,active: 4.01
4,COc1ccc(C(=O)/C=C(\C)Nc2ccc(NC(C)=O)cc2)cc1,-0.108
5,CCOc1cc(S(=O)(=O)NCc2ccccn2)c(C)cc1C,0.164
6,N#Cc1ccc(CSc2nnc(-c3cccs3)n2-c2ccccc2)cc1,-1.82
7,CC1=CC(C)(C)N2C(=O)C3(C(C#N)=C(N)OC4=C3C(=O)CC(C)(C)C4)c3cc(C)cc1c32 (stereo not drawn),0.474
8,CC(C)CNC(=S)N(Cc1ccco1)Cc1cc2cc3c(cc2[nH]c1=O)OCCO3,-0.396
9,CCOc1ccc(N=CC2=C(O)CC(c3ccco3)CC2=O)cc1 (stereo not drawn),-0.187
10,CC12CCC(C(=O)Nc3cc(Cl)ccc3Cl)(C/C1=N\O)C2(C)C (stereo not drawn),-0.269
11,COc1ccc(/C(C)=N/NC(=O)CCC(=O)Nc2ccc(Cl)cc2Cl)c(OC)c1,-0.503
12,Cc1ccc(-c2csc(N/N=C/C=C/c3ccccc3)n2)cc1,-0.0496
13,O=C(/C=C/c1ccc2c(c1)OCO2)Nc1nc(-c2ccc(F)cc2F)cs1,-0.00891
14,CN(C)C(=O)CSc1cccc2cccnc12,active: 7
15,O=C(Cc1nc(-c2ccc(Br)s2)cs1)NCCN1CCOCC1,-0.0716
16,COc1ccc(S(=O)(=O)N[C@@H](Cc2ccc(Cl)cc2)C(=O)N2CC[C@@]3(O)CCCC[C@H]3C2)cc1,-0.0964
17,COC(=O)c1ccc(CSc2nc3ccc(Cl)cc3[nH]2)o1,-0.626
18,C=CCN1C(=O)CSC1=Nc1cccc(O)c1,-0.17
19,CCOC(=O)CCCNC(=O)c1cncc(O)c1,-0.275
20,COc1ccc(C2C(C(=O)c3sc(C)nc3C)=C(O)C(=O)N2CCCn2ccnc2)cc1OC (stereo not drawn),-0.122
